T1: Mouse GLP-1R (Mus musculus, UniProt O35659)
T1 construct: expressed in transfected cells; host or cells: HEK-293
T1 sequence (O35659 22-463): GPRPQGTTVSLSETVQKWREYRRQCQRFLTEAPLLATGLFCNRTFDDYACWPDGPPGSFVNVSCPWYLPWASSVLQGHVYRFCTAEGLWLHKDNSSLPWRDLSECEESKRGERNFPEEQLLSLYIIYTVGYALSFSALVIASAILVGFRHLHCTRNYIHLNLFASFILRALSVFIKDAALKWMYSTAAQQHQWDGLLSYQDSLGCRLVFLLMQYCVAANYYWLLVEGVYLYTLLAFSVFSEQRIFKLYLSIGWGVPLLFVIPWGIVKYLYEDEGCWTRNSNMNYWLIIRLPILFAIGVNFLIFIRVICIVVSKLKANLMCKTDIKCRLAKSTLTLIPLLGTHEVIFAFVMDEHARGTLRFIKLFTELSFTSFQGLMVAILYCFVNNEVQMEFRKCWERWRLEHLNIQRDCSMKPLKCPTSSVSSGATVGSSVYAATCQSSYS


Legend:
Human GLP-1R = biological target: T2, Human GLP-1R (Homo sapiens, UniProt P43220); test: HTRF cAMP assay in HEK-293 cells, human GLP-1R; format: cell-based
T2 construct: expressed in transfected cells; host or cells: HEK-293
T2 sequence (P43220 24-463): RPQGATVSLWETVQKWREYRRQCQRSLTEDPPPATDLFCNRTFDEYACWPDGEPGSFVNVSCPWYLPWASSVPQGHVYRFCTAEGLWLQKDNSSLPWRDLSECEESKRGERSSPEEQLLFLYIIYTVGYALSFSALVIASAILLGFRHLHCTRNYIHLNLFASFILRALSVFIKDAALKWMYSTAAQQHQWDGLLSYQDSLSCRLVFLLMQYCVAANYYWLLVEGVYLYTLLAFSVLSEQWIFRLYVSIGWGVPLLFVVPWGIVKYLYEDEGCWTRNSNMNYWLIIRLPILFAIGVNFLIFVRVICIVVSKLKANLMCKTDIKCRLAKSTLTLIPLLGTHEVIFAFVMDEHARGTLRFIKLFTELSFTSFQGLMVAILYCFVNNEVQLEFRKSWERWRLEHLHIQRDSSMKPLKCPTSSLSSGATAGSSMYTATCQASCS

[1] = Pharmacokinetics after single subcutaneous administration in non-human primate; format: in vivo, male Cynomolgus monkeys; details: 0.3 mg/kg subcutaneous
Description: (§1) Plasma concentrations and pharmacokinetic parameters of GLP-1 RA/FGF21 Fc fusion proteins were determined after single subcutaneous administration of 0.3 mg/kg in solution to female C57BI/6 mice or male Cynomolgus monkeys using three different methods. Blood samples were obtained at time points from 30 minutes to 168 hours after dosing. […]
(§2) a.) Bioanalytical Screening Method for Quantification of the Intact FGF21 Part of the GLP-1 RA/FGF21 Fc Fusion Proteins Plasma samples were analyzed for the intact FGF21 part of the fusion proteins with an ELISA kit (F1231-K01, Eagle Biosciences, USA). The assay utilized the two-site sandwich technique with two selected antibodies that bound to different epitopes of human intact FGF21. One of the antibodies specifically bounds to the N-terminal amino acids (aa) 29-35 of human FGF21 and the other antibody specifically bound to the C-terminus (aa 203-209) of human FGF21. Assay standards, controls and unknown samples were added directly to wells of microplate that is coated with an anti-human FGF21 (aa 29-35)-specific antibody. Simultaneously, a horseradish peroxidase conjugated anti-human FGF21 (aa 203-209)-specific antibody was added to each well. After the first incubation period, the antibody on the walls of microtiter wells captured human FGF21 in the sample and unbound protein in each microtiter well is washed away. A “sandwich” of “anti-FGF21 antibody-human intact FGF21-HRP conjugated tracer antibody” was formed. The unbound tracer antibody was removed in the subsequent washing step. For the detection of this immunocomplex, the well was then incubated with a substrate solution in a timed reaction and then measured in a spectrophotometric microplate reader. The enzymatic activity of the immunocomplex bound to human intact FGF21 on the walls of the microtiter wells was directly proportional to the amount of intact FGF21 in the sample. […]
b.) Bioanalytical Screening Method for Quantification of the Intact Full-Length Fusions Proteins The concentration of the full-length GLP-1RA/FGF21 Fc fusion proteins in plasma were determined utilizing an ELISA method. The N-terminus of the fusion proteins were captured by a mouse monoclonal anti-GLP1 antibody (Mesoscale Discovery, MSD). Following blocking the plates with 150 μL of Blocker A (MSD) for 1 hour at room temperature (RT) with gentle shaking and washing 3 times with 300 μL wash buffer 50 μL of diluted plasma samples (standards and PK study samples) were added to each well and the plates were incubated for 1 hour at RT with gentle shaking. Following washing 3 times with 300 μL wash buffer 50 μL of the primer detection antibody (C-terminus rabbit anti-FGF21 antibody, Pineda Antikörper-Service, Berlin, Germany) was added to each well and the plates were incubated for 1 hour at RT. Following washing 3 times with 300 μL wash buffer 25 μL goat-anti-rabbit antibody (Sulfo-Tag labelled, MSD) diluted in PBS-Tween 0.05% (PBS-T) was added to each well and the plates were incubated for 1 hour at RT. Following washing 3 times with 300 μL PBS-T 150 μL read buffer was added to the wells. […]
c.) Bioanalytical Screening Method for Quantification of the Intact GLP-1 Part of the GLP-1 FGF21 Fc Fusion Proteins Plasma samples were analyzed for the intact GLP-1 part of the fusion proteins with a GLP-1 ELISA method. The ELISA plates were coated with mouse monoclonal anti-GLP-1 antibody (Mesoscale Discovery, MSD). Following blocking with 150 μL of Blocker A (MSD) for 1 hour at room temperature (RT) with gentle shaking and washing 3 times with 300 μL PBS-T, 50 μL of diluted plasma samples (standards and PK study samples) were added to each well and the plates were incubated for 1 hour at RT with gentle shaking. Following washing 3 times with 300 μL PBS-T, 25 μL of goat anti-human IgG diluted ( 1/3,333) in PBS-T (Sulfo-Tag labelled, MSD) was added to each well and the plates were incubated for 1 hour at RT. […]

Monkey GLP-1R = biological target: T3, Monkey GLP-1R (Macaca fascicularis, UniProt F8V479); test: HTRF cAMP assay in HEK-293 cells, monkey GLP-1R; format: cell-based
T3 construct: expressed in transfected cells; host or cells: HEK-293
T3 sequence (F8V479 24-463): as the sequence (P43220 24-463) above, with S112N, F120S, S202G, L205V, L237F, W241R, I249V counted along it

[2] = Conformational and thermal stability on UNit (intrinsic fluorescence and static light scattering); format: physicochemical; details: 5 mg/mL in phosphate buffer pH 7.4; for Tagg (aggregation onset temperature): UNit SLS 266 nm; for Tm (melting temperature): UNit
Description: Conformational stability and propensity to aggregate was determined simultaneously for the GLP-1RA/FGF21 Fc fusion proteins using a UNit (Unchained Labs, Calif., USA). The UNit combines the analysis of intrinsic fluorescence of a protein or polypeptide to detect unfolding of the protein or polypeptide and a Static Light Scattering (SLS) measurement in order to investigate aggregation behavior.
Data were acquired for the fusion proteins at a concentration of 5 mg/mL formulated in phosphate buffer at pH 7.4. A volume of 9 μL of each sample were loaded into a UNi capillary holder and analyzed in triplicate on the UNit. The temperature was increased from 20 to 95° C. at a constant linear rate of 0.3° C./minutes. The BaryCentric Mean (BCM) indicating the intrinsic fluorescence and SLS signals detected with a 266 nm laser were plotted against the applied temperature in order to obtain melting temperatures (Tm) and aggregation onset temperatures (Tagg). Data were analyzed using the UNit Analysis software v.

Mouse GLP-1R = biological target: T1, Mouse GLP-1R; test: HTRF cAMP assay in HEK-293 cells, mouse GLP-1R; format: cell-based
[3] = Pharmacokinetics after single subcutaneous administration in mouse; format: in vivo, female C57BI/6 mice; details: 0.3 mg/kg subcutaneous
Description: as §1, §2
b.) Bioanalytical Screening Method for Quantification of the Intact Full-Length Fusions Proteins The concentration of the full-length GLP-1RA/FGF21 Fc fusion proteins in plasma were determined utilizing an ELISA method. The N-terminus of the fusion proteins were captured by a mouse monoclonal anti-GLP1 antibody (Mesoscale Discovery, MSD). […] Following washing 3 times with 300 μL PBS-T 150 μL read buffer was added to the wells. […]
c.) Bioanalytical Screening Method for Quantification of the Intact GLP-1 Part of the GLP-1 FGF21 Fc Fusion Proteins Plasma samples were analyzed for the intact GLP-1 part of the fusion proteins with a GLP-1 ELISA method. […]

EC50 (Human GLP-1R) [nM] | EC50 (Monkey GLP-1R) [nM] | EC50 (Mouse GLP-1R) [nM] | Molecule | t1/2 monkey ([1]; FGF21 intact assay) [h] | t1/2 monkey ([1]; GLP-1 intact assay) [h] | t1/2 monkey ([1]; full-length assay) [h] | Tagg (aggregation onset temperature) [2] [°C] | Tm (melting temperature) [2] [°C] | t1/2 mouse ([3]; FGF21 intact assay) [h] | t1/2 mouse ([3]; full-length assay) [h]
0.152 | 0.217 | 0.0771 | 8 (protein, Fusion Protein) GHGEGTFTSDKSKQLEEEAVRLFIEWLKAGGPKKIRYSGGGGGGGSGGGGSGGGGSA[… human IgG1 Fc with changes …]GGGSGSAHPIPDSSPLLQFGGQVRQRYLYTDDACQTEAHLEIREDGTVGGAADQSPESLLQLKALKPGVIQILGVKTSRFLCQRPDGALYGSLHFDPEACSFRELLLEDGYNVYQSEAHGLPLHLPGCKSPHRDPAPRGPARFLPLPGLPPAPPEPPGILAPQPPDVGSSDPLSMVYPSQGRSPSYAS | 33.6 | 23.7 | 27.6 | 65.3 | 68.6 | 17.9 | 13.3
0.131 | 0.19 | 0.0681 | 7 (protein, Fusion Protein) GHGEGTFTSDKSKQLEEEAVRLFIEWLKAGGPKKIRYSGGGGGGGSGGGGSGGGGSA[… human IgG1 Fc with changes …]GGGSGSAHPIPDSSPLLQFGGQVRQRYLYTDDACQTEAHLEIREDGTVGGAADQSPESLLQLKALKPGVIQILGVKTSRFLCQRPDGALYGSLHFDPEACSFRELLLEDGYNVYQSEAHGLPLHLPGCKSPHRDPAPRGPARFLPLPGLPPAPPEPPGILAPQPPDVGSSDPLSMVGSQGRSPSYAS | 31.7 | 21.3 | 28.7 | 66.1 | 68.7 | 14.2 | 13.9

Reference: patent publication US20230250147A1, “GLP-1R AGONISTIC PEPTIDES WITH REDUCED ACTIVITY” (SANOFI, priority 2020, published 2023)
